From patent publication US20260151501A1, “ANTIBODY-DRUG CONJUGATE COMPRISING ANTI-CLAUDIN-18.2 ANTIBODY, AND THERAPEUTIC USE THEREOF FOR CANCER” (ABTIS CO., LTD., priority 2022, published 2026)

Columns and labels:
[1] = target: T1, claudin18.1 protein (CLDN18.1) (Homo sapiens, UniProt P56856); experiment: Cell-based ELISA binding to Claudin18.1 CHO-K1 cells
T1 construct: expressed in transfected cells; host or cells: CHO-K1 (transient, pcDNA3.1 vector)
Experimental: OD value measurement through ELISA was performed by measuring the absorbance at 450 nm using a UV-Vis spectrometer.
A CHO-K1 cell line (hereinafter, referred to as “Claudin18.1 CHO-K1”) into which a gene (SEQ ID NO: 18) encoding the claudin18.1 protein (CLDN18.1) was transiently transfected, a CHO-K1 cell line (hereinafter, referred to as “Claudin18.2 CHO-K1”) into which a gene (SEQ ID NO: 19) encoding the claudin18.2 protein (CLDN18.2) was transiently transfected, and a CHO-K1 cell line (hereinafter, referred to as “MOCK CHO-K1”) into which only a NOCK vector (empty vector) was transiently transfected were prepared. At this time, a pcDNA3.1 vector was used for Claudin18.1 CHO-K1, and a pcDNA3.1 (+) vector was used for Claudin18.2 CHO-K1. […]
Transient transfection was performed according to the TransIT2020 manual, the transfected cells were plated on a 96-well plate for culture, and then treated with each of antibody-A and ADC-A. Thereafter, cell-based enzyme-linked immunosorbent assay (ELISA) was performed, and optical density (OD) values were measured.
The measured results were used for a regression analysis using GraphPad PRISM® 9.0 software to calculate EC50 and Bmax. The cell binding affinity of antibody-A and ADC-A was evaluated based on the calculated values.

[2] = test system: MIA PaCa-2 (CLDN18.2-) cell line; experiment: Cytotoxicity (CellTiter-Glo cell viability), MIA PaCa-2 (CLDN18.2-); format: cell-based; conditions: MIA PaCa-2 (CLDN18.2−), pancreatic cancer
Experimental: To measure cell viability in cytotoxicity experiments, the measurement of luminescence using GloMax® Discover was used, and the measurement method was according to the equipment manual.
Four types of cell lines (MIA PaCa-2˜CLDN18.2, PATU8988S, parental MIA PaCa-2 (CLDN18.2-), SNU601, NUGC-4, and AGS) were prepared. At this time, MIA PaCa-2˜CLDN18.2 and PATU8988S are CLDN18.2-positive pancreatic cancer cell lines. MIA PaCa-2 (CLDN18.2-) is a CLDN18.2-negative pancreatic cancer cell line. SNU601 and NUGC-4 are CLDN18.2-positive gastric cancer cell lines. AGS is a CLDN18.2-negative gastric cancer cell line.
The prepared cell lines were cultured in DMEM containing 10% FBS and 1% penicillin/streptomycin (MIA PaCa-2˜CLDN18.2, MIA PaCa-2 (CLDN18.2-)), RPMI1640 containing 10% FBS and 1% penicillin/streptomycin (SNU601, NUGC-4, and AGS), and DMEM containing 5% FBS, 5% horse serum, 1% penicillin/streptomycin, and […] L-glutamine (PATU8988S) in an incubator under the conditions of 37° C. and 5% CO2. […]
Changes in cell viability according to treatment of each test substance were measured using the same method as the CellTiter-Glo manual.
The measured results were used for a regression analysis in GraphPad PRISM® 9.0 software to calculate IC50. The cytotoxicity of each test substance was evaluated based on the calculated values.

[3] = test system: SNU601 cell line; experiment: In vivo drug efficacy, SNU601 gastric cancer tumor model; set-up: species or system BALB/c nude mouse; conditions: 2 mg/kg intravenous injection once/day 1 (G2, G8)
Experimental: The SNU601 cell line, which is a CLDN18.2-positive gastric cancer cell line, was cultured in an RPMI culture solution containing 10% FBS and 1% penicillin/streptomycin in an incubator under the conditions of 37° C. and 5% CO2. The SNU601 cell line was regularly sub-cultured once a week through trypsin-ethylenediaminetetraacetic acid (EDTA) treatment.
(§1) For tumor development, the SNU601 cell line (1×10^7) was mixed with serum-free medium and Matrigel, and the resulting mixture was subcutaneously inoculated into the left flank of each BALB/c nude mouse (purchased from Charles River Laboratories Japan Inc.). The mice were randomly assigned to eight groups (G1 to G8) on the basis that the average tumor volume in each group reached about 155 mm^3.
(§2) All animals were observed twice a day for mortality, abnormal symptoms, pain, and signs of stress, and once a day for clinical signs. The changes in body weight and the tumor volume were measured three times a week, and the tumor weight was determined after autopsy.
The tumor volume, tumor difference, and tumor growth inhibition were calculated as follows: […]
Tf is the last tumor volume measured before autopsy, and Ti is the first tumor volume measured.
Numerical data regarding the study was calculated as mean and standard deviation. Group variances were compared using the Bartlett's test at a 0.05 significance level for each parameter. When the difference between group variances was not significant, a parametric one-way analysis of variance (ANOVA) was performed. When a significant difference between means was indicated by ANOVA (p≤0.05), group mean comparison was performed between the control and each treatment group using the Dunnett's test. […] When significance was found by the Kruskal-Wallis test (p≤0.05), the significance of the difference between the control and each treatment group was assessed using the Dunn's test. Significance was reported at the levels of 0.05, 0.01 and 0.001 for the comparison of each group. All statistical analyses were performed using GraphPad PRISM® Version 5.0.

[4] = Body weight and gastric histology in SNU601 tumor model mice; format: in vivo, BALB/c nude mouse; conditions: for Body weight (mean ± standard deviation): 2 mg/kg intravenous injection once/day 1 (G2, G8)
Source text: as §1, §2

T1 sequence (P56856 whole entry): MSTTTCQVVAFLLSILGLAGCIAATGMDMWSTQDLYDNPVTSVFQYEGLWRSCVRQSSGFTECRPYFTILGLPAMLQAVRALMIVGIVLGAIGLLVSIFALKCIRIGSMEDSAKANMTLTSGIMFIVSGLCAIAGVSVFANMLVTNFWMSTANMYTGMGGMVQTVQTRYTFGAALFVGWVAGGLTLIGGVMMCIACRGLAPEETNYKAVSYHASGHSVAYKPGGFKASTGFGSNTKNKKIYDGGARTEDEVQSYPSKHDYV

B1: Antibody-A: anti-claudin18.2 antibody with heavy chain of SEQ ID NO: 16 and light chain of SEQ ID NO: 17 (antibody)
heavy: QVQLVESGGGVVQPGRSLRLSCAASGFSLTTYGVHWVRQAPGKGLEWVAVIWAGGSTNYNSALMSRFTISRDNSKNTLYLQMNSLRAEDTAVYYCARAAYYGNGLDYWGQGTMVTVSS[… human IgG1 constant region …]
light: DIVMTQSPLSLPVTPGEPASISCKSSQTLLNSGNQKNYLTWYLQKPGQSPQLLIYWASTGESGVPDRFSGSGSGTDFTLKISRVEAEDVGVYYCQNAYFYPFTFGGGTKVEIKRTVAAPSVFIFPPSDEQLKSGTASVVCLLNNFYPREAKVQWKVDNALQSGNSQESVTEQDSKDSTYSLSSTLTLSKADYEKHKVYACEVTHQGLSSPVTKSFNRGEC
modifications: heavy chain of Claudin18.2 antibody; light chain of Claudin18.2 antibody
[1]
  binding to Claudin18.1 CHO-K1 cell line: did not bind
[2]
  IC50: > 66.7 nM
[3]; Day 1
  Tumor volume (mean ± standard deviation): 155.8 mm^3
[3]; Day 8
  Tumor volume (mean ± standard deviation): 211.3 mm^3
[3]; Day 15
  Tumor volume (mean ± standard deviation): 280.4 mm^3
[3]; Day 22
  Tumor volume (mean ± standard deviation): 316.8 mm^3
[3]; Day 28
  TGI (Tumor growth inhibition): 9.3%
  Tumor volume (mean ± standard deviation): 384.3 mm^3
[3]; Day 28 after first administration
  Tumor weight (mean ± standard deviation): 0.250 ± 0.092 g
[4]; Day 1
  Body weight (mean ± standard deviation): 20.2 ± 1.3 g
[4]; Day 28
  Body weight (mean ± standard deviation): 23.0 ± 1.5 g
[4]; during the study period
  effects on the changes in body weight: no effects
[4]; even in the highest concentration administration group G8
  histological gastric lesions: No histological gastric lesions
